The text below walks through data of the supplement of paper PMC12632987.

Sequences and labels used below:
T1: TRAF2, Q12933
T1 chain: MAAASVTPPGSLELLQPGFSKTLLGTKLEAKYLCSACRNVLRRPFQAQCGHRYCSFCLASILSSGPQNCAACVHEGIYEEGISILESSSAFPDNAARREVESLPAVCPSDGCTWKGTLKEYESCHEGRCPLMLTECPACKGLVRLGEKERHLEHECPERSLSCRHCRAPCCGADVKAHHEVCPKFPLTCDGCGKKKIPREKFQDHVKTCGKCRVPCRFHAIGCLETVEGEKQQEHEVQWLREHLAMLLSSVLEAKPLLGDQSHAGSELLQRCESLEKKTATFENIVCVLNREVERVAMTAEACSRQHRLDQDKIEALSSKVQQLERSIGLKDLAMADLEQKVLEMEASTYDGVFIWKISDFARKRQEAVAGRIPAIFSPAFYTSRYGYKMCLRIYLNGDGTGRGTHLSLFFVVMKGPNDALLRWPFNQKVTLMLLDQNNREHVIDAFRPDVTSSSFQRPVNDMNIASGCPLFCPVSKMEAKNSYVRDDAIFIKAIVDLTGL

B1: traf2_out_11_169_801 (protein)
chain: EEKEKNRKINDKALELNDKAKEELLKHALKLAKEAGLDEAEVKAIYEKHKNHSLSAVASALIDYFRSKGAEEEAAAVEEKYDELKEKINKEMTAFIKELE
B2: traf2_out_20_154_1996 (protein)
chain: PTDEEIDAVSDELVDASAKRRAALVAIEMLRNPERAAEILAAARAHYANDAVFQAALAEEEARIAAGATLEEFEALAEEYAKKAQELGDKLEELLEKRRK
B3: traf2_out_11_155_710 (protein)
chain: EEKLKINQELVDKVQEIADEALAELNKLIDEVAKEDPEVAAQLRAVLDASKDAGITTKLRLAIAVLKAAGREEEAAKVEKILEDYQKKANEIAKEAEEKL
B4: traf2_out_11_155_708 (protein)
chain: EEKLKLYQELVDANMAVADEALARLEALIDEVAARDPAVAAELRAVLEANRDAGYRTKLLLAERVLRAAGYEEEAARVEAILEEAQRRMNEIAKKTEEKL
B5: traf2_out_6_166_2471 (protein)
chain: EEELLERIKEIAKELGKYDPEIVIEAFERLAAERDDATATLARQLASGVRQAQKAGLDVTTIITAFAEGQLALGVPVETILALFEEVLKIAKELEEEKKK
B6: traf2_out_20_3_2095 (protein)
chain: EELEKELEKALKEAAKLIKKAIALADPETAARLEALLKRLKAAEKLPLEDRLVALSAVRRELLALAEEARAAGREELAKLLEEAAEEVNRAMNLAYKIIE
B7: traf2_out_19_16_1978 (protein)
chain: KKEELEKLKKELEKIKKEVKKLEKEFEENKDKLTREELSDLLVKVSELKRKAQEILQKLEELKDYDPEEVEKLKKEAEKVIEEAQKLANKIVDRYEELLK
B8: traf2_out_13_95_1106 (protein)
chain: SAETAEKIMEIADEMLDKVEELLEKLLEIAKKKGKLEEEIQEALHLARYRSINEAIHLLKELAKKYPEFKEELEETIEKIEELIREAGRKVAEILKEEKE
B9: traf2_out_13_95_1191 (protein)
chain: EEEKRKKYAERTNAIADELLDHADAKIAELEAATGDPELGAELRRVLDRGGVSALIHRIRELAKEDPAYREAYEAAAAELEAKRREAGRRVAEAEKEIEA
B10: traf2_out_17_162_1488 (protein)
chain: SELKARLEELKKRLEELEKKLKELEEKLKNLEKLSKEELTDLLVEVSELKREALELAEELKKLQKETGDPELKTLIERAEKLAEEAQRIANKIYKELEKK
B11: traf2_out_11_155_703 (protein)
chain: EEKKKLNNELVDKMIEIEEKLKEEVLKIIEAAAAAHPEHAAELAAVVEESKPFSGTDFARLAARKFEELGLEEEAAKVKALLEKAQKEKNKIYKEIEEKI
B12: traf2_out_11_155_694 (protein)
chain: EKKKELNNELVDKNMEIADKAKEELAKIAAAAAAAHPEHAAAIAALLAESSRFSATTFAGQLAALFRELGLEEYAAEVEKLREKAQKERNKVYKEIEAKI
B13: traf2_out_17_178_1675 (protein)
chain: DKEKWRAKISELTDKLIDLTEKTGRELLALAEKEGALSPEELALLRAALRSGSANTFLAVAKRIAPKLPSAEEAQALLDEFEKEKRKLSKEIAEAYEKYE
B14: traf2_out_20_3_2129 (protein)
chain: KELEEEAKKELEKAIKLLKEAAKLASPEKAKELEELAKELKESEKLSPSDRLVKVSEIRRKVRAMALEAKAAGDEKLAAVLEKAAEALNRLAQLLYKIIQ
B15: traf2_out_17_162_1588 (protein)
chain: GELEKKKEELEKKLEELEKKKKELEKKLEKIDELSKEELTDLLVEASEAKREALELLEEIKSLKDLLPEEEYEKLSKKAEELAEKFQKIANKFYKKLEEK
B16: traf2_out_16_104_1419 (protein)
chain: SAEDQAKFDALIKEAEEIAEELGRLANELYQKLLTASPEEKEKLSDALVKASEARREALELAEEIEKAKAAGGDLKEAEAKLEKLKAKAEEVKKEAEKLF
B17: traf2_out_19_164_1962 (protein)
chain: MSPEEIRREELERAEELAPRSRAENLVATVLELSAAGRDEEALATLRAALDHLARILEKEEFLRTLDIAIALVDERAAELPPELAAAVRALLEEARARAR
B18: traf2_out_11_169_830 (protein)
chain: EEAEKNRKINDFALELEEKAKEEFKKFVLELAKEEGLDVEEIKKIFEENKNKSLSAIAAAVIEYFKSKGKEEAAEKVLKKYEELKEKINKEATEKIKELE
B19: traf2_out_11_155_680 (protein)
chain: AKKQELNNELVDKTTAINDKLKAEVTAIAEKAAAAKPEKAAEIKAVLEASKPFSGRTFAGNMAATFKKLGLEEAAKEVEELLEKAQKEMNKVVKEIEAKL
B20: traf2_out_11_155_761 (protein)
chain: SEKLALEQEFTDKVTELADKIEAKIEEIIKKLEKEDPEVAKKVRELLEKHRDASARSKALLAAELLKKEGYEELAKELLDEVEKAQKEANKLAKEMEEKK
B21: traf2_out_11_169_806 (protein)
chain: KEAEKNREINDFALELNDEAVKKLKEEALKLAKEAGLDPEEVEAIFEKHKGKSLSAVAAALIKYFKEKGAEEAAERVLKLHEELQEEINKKMTKKIKELE
B22: traf2_out_10_21_631 (protein)
chain: DAARRYLERALEIAKSGEDDRSLIAALLTNAYVAIAGLVISDNAEAYKRLASEILKFLSSMSHEEVVAYLTEMVENFEEFKKEAKEKMAKVVAEVEAKKK
B23: traf2_out_20_3_2135 (protein)
chain: SELEEELEKALEEAIKLLKEAAKLADPETAKELEKLIEELKKSKELPLTDRLVKLSEIRRRVLEMAEAAKKAGKEELAAVLEEAADAINKAMNLLMKLIE
B24: traf2_out_13_95_1105 (protein)
chain: SAETAEKIMEVADEMLEKSEKLLEELLKIAKEKGKLVEEVQEALDLARYRSINEAIHKLKELAKKYPEFKEEFEATIKELEELKREAGRKVAEILKEEKE
B25: traf2_out_20_38_2028 (protein)
chain: SEEEEEKKRLEELIKVANEAYDKAEKKIAKLKAEGKTIEEIAEEAKEEVERILSEVGLEEEREELIEDIDRVLDSPDAERLIARILARAVALAYQKELQK
B26: traf2_out_17_162_1497 (protein)
chain: AETEERLRELEEELRELEEELEKLREKLPDLPKMSKEELTDLLVEVSELKRRARLLAEELRRLAEETGSPRAEELLRRAEELAEEAQRIANEIYKELEAK
B27: traf2_out_16_104_1418 (protein)
chain: SAAADAEFDALIAEAEAIADELGKLANELYKMLEKASPADKEKLSDQLVAASEARRAALALAEELRRARAAGGDLAAARAALAKLKADAAAVKAAAAALK
B28: traf2_out_20_3_2145 (protein)
chain: EELEKELKKELEKALKILEEAAKLADKETAKKLKELAKKLEESKELSYSDQLVVVSEVRREVLELADKAKAAGKEELAKKLEEAAEALNRAANLLYKIIE
B29: traf2_out_18_3_1901 (protein)
chain: KEEERKRLSEEIDEIVDEAEAYARRVLDRLAAERPEVAAELDRLRAVLEAGGGAFGVLEELAELARRLGLEELAEEIEEFLREKRRRFQELVDRYEELIK

The full ranking holds about 1,800 sequences; the median of “median log2 fold change of GCK-ALFA target abundance (FLAG IP / Myc IP barcode read proportion)” is about 0.14, and the lowest 2% start at about -0.84. This is one part of the list.

The target in this assay is T1, TRAF2, Q12933. Nature of the assay: median log2 fold change of GCK-ALFA target abundance (FLAG IP / Myc IP barcode read proportion) (log2 ratio); each designed protein is fused to an ALFA-tag nanobody in HEK293 cells to bring the named protein to FLAG-tagged glucokinase (GCK); Myc marks an untargeted standard; higher = target protein stabilised (more abundant). The conditions noted are these: target protein: 3xFLAG-MCP-GCK-ALFA reporter; HEK293 landing pad (RPLP). The method, boiled down:
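The readout is target abundance, the per-binder median log2 ratio of FLAG to Myc barcode read proportions. It came from HEK293 landing-pad cells carrying a recombined ALFA-nanobody-fused binder library, induced with 2 μg mL^−1 doxycycline and transfected with a plasmid for a FLAG-tagged target and a Myc-tagged standard. After 48 h, lysates were immunoprecipitated with anti-FLAG and anti-Myc, and circular RNA barcodes were reverse transcribed, amplified and sequenced. Each barcode needed a proportion of at least 10^−7 in both replicates and each binder at least 3 barcodes per replicate, a pseudocount of 10^−6 was added, and the replicates were pooled.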
B1: the “median log2 fold change” value turned out to be 0.293. Next, B2: 0.0394; B3: 0.197; B4: 0.265. Regarding B5, the “median log2 fold change” value worked out at 0.274.

With B6, the “median log2 fold change” value was -0.0878. As for B7, the figure is 0.315. Turning to B8, the “median log2 fold change” value is -0.553.

Take B9: the “median log2 fold change” value was determined as 0.242. Next, B10: 0.323.

With B11, the “median log2 fold change” value was 0.474. Next, B12: 0.165; B13: 0.105. As for B14, the figure is 0.334. As for B15, the figure is -0.156.

For the molecule B16, the “median log2 fold change” value came out at 0.333.

As to B17, the “median log2 fold change” value amounted to 0.275. As for B18, the figure is 0.00164; as for B19, 0.134. As for B20, the figure is 0.256. Next, B21: 0.506; B22: 0.0798. Take B23: the “median log2 fold change” value is 0.115. As to B24, the “median log2 fold change” value was -0.477. Turning to B25, the “median log2 fold change” value is -0.966.

As for B26, the “median log2 fold change” value turned out to be 0.216. As for B27, the figure is 0.0232. For B28, the “median log2 fold change” value was 0.132. Regarding B29, the “median log2 fold change” value stood at 0.308.
